Test results as given in US10874745B2, “Antimicrobial peptides and methods of treating gram-negative pathogens: polar and non-polar face analogs” (priority 2017, dated 2020).
Read-outs that look alike come from different tables or passages of the source. Part of at least one peptide drawing is inferred or uncertain, most often the ends. Non-standard residues stand in square brackets, D forms with d. Residues, ends and D or L forms follow the SMILES beside them. dDab = NCC[C@@H](N)C(=O)O

What was measured:
[1] = RP-HPLC retention time as measure of overall peptide hydrophobicity; type: physicochemical; settings: Zorbax SB-C8, 0.5% B/min from 2% B, 30° C. (Table 3)
Text: Retention behavior in RP-HPLC is an excellent method to represent overall peptide hydrophobicity. Retention times of peptides are highly sensitive to the conformational status of the peptides upon interaction with the hydrophobic environment of the column matrix (Jiang, Z., et al., Chem. Biol. Drug Des. 2011; Chen, Y., et al., J. Peptide Research 2002, supra). The non-polar faces of amphipathic alpha-helical and amphipathic cyclic beta-sheet peptides represent a preferred binding domain for interaction with the hydrophobic matrix of the reversed-phase column (Zhou, N. E., et al., Peptide Research 1990, 3:8-20). In this study, the observed peptide hydrophobicity was determined by RP-HPLC retention time as described in the methods section and are relative hydrophobicities because they are dependent on the TFA concentration and organic solvent in the mobile phase, gradient rate, temperature, flow rate and the column used. […]

[2] = tested on: A. baumannii strains resistant to Polymyxin B and Colistin; type: cell-based; settings: geometric mean, 7 A. baumannii strains resistant to polymyxin B and colistin
[3] = RP-HPLC temperature profiling, peptide self-association; type: physicochemical; settings: for Tp: 0.25% B/min from 10% B (Table 4); for PA, self-association parameter: 0.25% B/min from 10% B, relative to RC (Table 4)

## CC(=O)N[C@H](CCCCN)C(=O)N[C@H](CC(C)C)C(=O)N[C@H](CCCCN)C(=O)N[C@H](CO)C(=O)N[C@H](CC(C)C)C(=O)N[C@H](CC(C)C)C(=O)N[C@H](CCCCN)C(=O)N[C@@H](C(=O)N[C@H](CC(C)C)C(=O)N[C@H](CO)C(=O)N[C@H](CCCCN)C(=O)N[C@H](C)C(=O)N[C@H](CCCCN)C(=O)N[C@H](C)C(=O)N[C@H](C)C(=O)N[C@H](CCCCN)C(=O)N[C@H](CC(C)C)C(=O)N[C@H](CCCCN)C(=O)N[C@@H](C(=O)N[C@H](CC(C)C)C(=O)N[C@H](CC(C)C)C(=O)N[C@H](CCCCN)C(=O)N[C@H](C)C(=O)N[C@H](CC(C)C)C(=O)N[C@H](CO)C(=O)N[C@H](CCCCN)C(N)=O)[C@H](C)O)[C@H](C)O [Peptide D84, Ac-KL(Lys)SLL(Lys)TLS(Lys)AKAAKL(Lys)TLL(Lys)ALS(Lys)-amide]
[1]
  tR, relative hydrophilicity/hydrophobicity: 71.4 min
[2]
  MICGM: 0.5 µM
[2]; listed as D84 (6 Lys-1)
  MICGM: 0.5 µM
[3]
  Tp: 25 °C
  PA, self-association parameter: 6.8 min

## CC(=O)N[C@H](CCCCN)C(=O)N[C@H](CC(C)C)C(=O)N[C@H](CCCN)C(=O)N[C@H](CO)C(=O)N[C@H](CC(C)C)C(=O)N[C@H](CC(C)C)C(=O)N[C@H](CCCN)C(=O)N[C@@H](C(=O)N[C@H](CC(C)C)C(=O)N[C@H](CO)C(=O)N[C@H](CCCN)C(=O)N[C@H](C)C(=O)N[C@H](CCCCN)C(=O)N[C@H](C)C(=O)N[C@H](C)C(=O)N[C@H](CCCCN)C(=O)N[C@H](CC(C)C)C(=O)N[C@H](CCCN)C(=O)N[C@@H](C(=O)N[C@H](CC(C)C)C(=O)N[C@H](CC(C)C)C(=O)N[C@H](CCCN)C(=O)N[C@H](C)C(=O)N[C@H](CC(C)C)C(=O)N[C@H](CO)C(=O)N[C@H](CCCN)C(N)=O)[C@H](C)O)[C@H](C)O [Peptide D85, Ac-KL(Orn)SLL(Orn)TLS(Orn)AKAAKL(Orn)TLL(Orn)ALS(Orn)-amide]
[1]
  tR, relative hydrophilicity/hydrophobicity: 69.3 min
[2]
  MICGM: 0.5 µM
[2]; listed as D85 (6 Orn-1)
  MICGM: 0.5 µM
[3]
  Tp: 15 °C
  PA, self-association parameter: 2.9 min

## CC(=O)N[C@H](CCCCN)C(=O)N[C@H](CC(C)C)C(=O)N[C@H](CCN)C(=O)N[C@H](CO)C(=O)N[C@H](CC(C)C)C(=O)N[C@H](CC(C)C)C(=O)N[C@H](CCN)C(=O)N[C@@H](C(=O)N[C@H](CC(C)C)C(=O)N[C@H](CO)C(=O)N[C@H](CCN)C(=O)N[C@H](C)C(=O)N[C@H](CCCCN)C(=O)N[C@H](C)C(=O)N[C@H](C)C(=O)N[C@H](CCCCN)C(=O)N[C@H](CC(C)C)C(=O)N[C@H](CCN)C(=O)N[C@@H](C(=O)N[C@H](CC(C)C)C(=O)N[C@H](CC(C)C)C(=O)N[C@H](CCN)C(=O)N[C@H](C)C(=O)N[C@H](CC(C)C)C(=O)N[C@H](CO)C(=O)N[C@H](CCN)C(N)=O)[C@H](C)O)[C@H](C)O [Peptide D86, Ac-KL(Dbu)SLL(Dbu)TLS(Dbu)AKAAKL(Dbu)TLL(Dbu)ALS(Dbu)-amide] (Ac-[dK][dL][dDab][dS][dL][dL][dDab][dT][dL][dS][dDab][dA][dK][dA][dA][dK][dL][dDab][dT][dL][dL][dDab][dA][dL][dS][dDab]-NH2)
[1]
  tR, relative hydrophilicity/hydrophobicity: 58.8 min
[2]
  MICGM: 1.0 µM
[2]; listed as D86 (6 Dbu-1)
  MICGM: 1.0 µM

## CC(=O)N[C@H](CCCCN)C(=O)N[C@H](CC(C)C)C(=O)N[C@H](CCCNC(=N)N)C(=O)N[C@H](CO)C(=O)N[C@H](CC(C)C)C(=O)N[C@H](CC(C)C)C(=O)N[C@H](CCCNC(=N)N)C(=O)N[C@@H](C(=O)N[C@H](CC(C)C)C(=O)N[C@H](CO)C(=O)N[C@H](CCCNC(=N)N)C(=O)N[C@H](C)C(=O)N[C@H](CCCCN)C(=O)N[C@H](C)C(=O)N[C@H](C)C(=O)N[C@H](CCCCN)C(=O)N[C@H](CC(C)C)C(=O)N[C@H](CCCNC(=N)N)C(=O)N[C@@H](C(=O)N[C@H](CC(C)C)C(=O)N[C@H](CC(C)C)C(=O)N[C@H](CCCNC(=N)N)C(=O)N[C@H](C)C(=O)N[C@H](CC(C)C)C(=O)N[C@H](CO)C(=O)N[C@H](CCCNC(=N)N)C(N)=O)[C@H](C)O)[C@H](C)O [Peptide D87, Ac-KL(Arg)SLL(Arg)TLS(Arg)AKAAKL(Arg)TLL(Arg)ALs(Arg)-amide] (Ac-[dK][dL][dR][dS][dL][dL][dR][dT][dL][dS][dR][dA][dK][dA][dA][dK][dL][dR][dT][dL][dL][dR][dA][dL][dS][dR]-NH2)
[1]
  tR, relative hydrophilicity/hydrophobicity: 73.9 min
[3]
  Tp: 15 °C
  PA, self-association parameter: 3.4 min

## CC(=O)N[C@H](CCCCN)C(=O)N[C@H](CC(C)C)C(=O)N[C@H](CCN)C(=O)N[C@H](CO)C(=O)N[C@H](CC(C)C)C(=O)N[C@H](CC(C)C)C(=O)N[C@H](CCN)C(=O)N[C@@H](C(=O)N[C@H](CC(C)C)C(=O)N[C@H](CO)C(=O)N[C@H](C)C(=O)N[C@H](C)C(=O)N[C@H](CCCCN)C(=O)N[C@H](CCN)C(=O)N[C@H](CCN)C(=O)N[C@H](CCCCN)C(=O)N[C@H](CC(C)C)C(=O)N[C@H](C)C(=O)N[C@@H](C(=O)N[C@H](CC(C)C)C(=O)N[C@H](CC(C)C)C(=O)N[C@H](CCN)C(=O)N[C@H](C)C(=O)N[C@H](CC(C)C)C(=O)N[C@H](CO)C(=O)N[C@H](CCN)C(N)=O)[C@H](C)O)[C@H](C)O [Peptide D89, Ac-KL(Dbu)SLL(Dbu)TLSAAK(Dbu)(Dbu)KLATLL(Dbu)ALS(Dbu)-amide] (Ac-[dK][dL][dDab][dS][dL][dL][dDab][dT][dL][dS][dA][dA][dK][dDab][dDab][dK][dL][dA][dT][dL][dL][dDab][dA][dL][dS][dDab]-NH2)
[1]
  tR, relative hydrophilicity/hydrophobicity: 60.2 min
[2]
  MICGM: 0.7 µM
[2]; listed as D89 (6 Dbu-2)
  MICGM: 0.7 µM

## CC(=O)N[C@H](CCCCN)C(=O)N[C@H](CC(C)C)C(=O)N[C@H](CCCCN)C(=O)N[C@H](CO)C(=O)N[C@H](CC(C)C)C(=O)N[C@H](CC(C)C)C(=O)N[C@H](CCCCN)C(=O)N[C@@H](C(=O)N[C@H](CC(C)C)C(=O)N[C@H](CO)C(=O)N[C@H](CCCCN)C(=O)N[C@H](C)C(=O)N[C@H](CCCCN)C(=O)N[C@H](C)C(=O)N[C@H](C)C(=O)N[C@H](CCCCN)C(=O)N[C@H](CC(C)C)C(=O)N[C@H](CCCCN)C(=O)N[C@@H](C(=O)N[C@H](CC(C)C)C(=O)N[C@H](CC(C)C)C(=O)N[C@H](CCCCN)C(=O)N[C@H](C)C(=O)N[C@H](CC(C)C)C(=O)N[C@H](CO)C(=O)N[C@H](CO)C(N)=O)[C@H](C)O)[C@H](C)O [Peptide D101, Ac-KL(Lys)SLL(Lys)TLS(Lys)AKAAKL(Lys)TLL(Lys)ALSS-amide]
[1]
  tR, relative hydrophilicity/hydrophobicity: 72.2 min
[3]
  Tp: 25 °C
  PA, self-association parameter: 7.2 min

## CC(=O)N[C@H](CCCCN)C(=O)N[C@H](CC(C)C)C(=O)N[C@H](CCN)C(=O)N[C@H](CO)C(=O)N[C@H](CC(C)C)C(=O)N[C@H](CC(C)C)C(=O)N[C@H](CCN)C(=O)N[C@@H](C(=O)N[C@H](CC(C)C)C(=O)N[C@H](CO)C(=O)N[C@H](CCN)C(=O)N[C@H](C)C(=O)N[C@H](CCCCN)C(=O)N[C@H](C)C(=O)N[C@H](C)C(=O)N[C@H](CCCCN)C(=O)N[C@H](CC(C)C)C(=O)N[C@H](CCN)C(=O)N[C@@H](C(=O)N[C@H](CC(C)C)C(=O)N[C@H](CC(C)C)C(=O)N[C@H](CCN)C(=O)N[C@H](C)C(=O)N[C@H](CC(C)C)C(=O)N[C@H](CO)C(=O)N[C@H](CO)C(N)=O)[C@H](C)O)[C@H](C)O [Peptide D102, Ac-KL(Dbu)SLL(Dbu)TLS(Dbu)AKAAKL(Dbu)TLL(Dbu)ALSS-amide] (Ac-[dK][dL][dDab][dS][dL][dL][dDab][dT][dL][dS][dDab][dA][dK][dA][dA][dK][dL][dDab][dT][dL][dL][dDab][dA][dL][dS][dS]-NH2)
[1]
  tR, relative hydrophilicity/hydrophobicity: 57.7 min

## CC(=O)N[C@H](CCCCN)C(=O)N[C@H](CC(C)C)C(=O)N[C@H](CCCCN)C(=O)N[C@H](CO)C(=O)N[C@H](CC(C)C)C(=O)N[C@H](CC(C)C)C(=O)N[C@H](CCCCN)C(=O)N[C@@H](C(=O)N[C@H](CC(C)C)C(=O)N[C@H](CO)C(=O)N[C@H](C)C(=O)N[C@H](C)C(=O)N[C@H](CCCCN)C(=O)N[C@H](CCCCN)C(=O)N[C@H](CCCCN)C(=O)N[C@H](CCCCN)C(=O)N[C@H](CC(C)C)C(=O)N[C@H](C)C(=O)N[C@@H](C(=O)N[C@H](CC(C)C)C(=O)N[C@H](CC(C)C)C(=O)N[C@H](CCCCN)C(=O)N[C@H](C)C(=O)N[C@H](CC(C)C)C(=O)N[C@H](CO)C(=O)N[C@H](CO)C(N)=O)[C@H](C)O)[C@H](C)O [Peptide D103, Ac-KL(Lys)SLL(Lys)TLSAAK(Lys)(Lys)KLATLL(Lys)ALSS-amide] (Ac-[dK][dL][dK][dS][dL][dL][dK][dT][dL][dS][dA][dA][dK][dK][dK][dK][dL][dA][dT][dL][dL][dK][dA][dL][dS][dS]-NH2)
[1]
  tR, relative hydrophilicity/hydrophobicity: 71.1 min
[3]
  Tp: 25 °C
  PA, self-association parameter: 7.2 min
